# The supplement of paper PMC3334620
# Whole data set: some 33,000 sequences, median “E-score (-0.5 to 0.5)” near -0.011, cut for the highest 2% near 0.28. The list shows a part of the results.
# Molecular target: T1, Gcr1 (UniProt P07261)
# T1 sequence: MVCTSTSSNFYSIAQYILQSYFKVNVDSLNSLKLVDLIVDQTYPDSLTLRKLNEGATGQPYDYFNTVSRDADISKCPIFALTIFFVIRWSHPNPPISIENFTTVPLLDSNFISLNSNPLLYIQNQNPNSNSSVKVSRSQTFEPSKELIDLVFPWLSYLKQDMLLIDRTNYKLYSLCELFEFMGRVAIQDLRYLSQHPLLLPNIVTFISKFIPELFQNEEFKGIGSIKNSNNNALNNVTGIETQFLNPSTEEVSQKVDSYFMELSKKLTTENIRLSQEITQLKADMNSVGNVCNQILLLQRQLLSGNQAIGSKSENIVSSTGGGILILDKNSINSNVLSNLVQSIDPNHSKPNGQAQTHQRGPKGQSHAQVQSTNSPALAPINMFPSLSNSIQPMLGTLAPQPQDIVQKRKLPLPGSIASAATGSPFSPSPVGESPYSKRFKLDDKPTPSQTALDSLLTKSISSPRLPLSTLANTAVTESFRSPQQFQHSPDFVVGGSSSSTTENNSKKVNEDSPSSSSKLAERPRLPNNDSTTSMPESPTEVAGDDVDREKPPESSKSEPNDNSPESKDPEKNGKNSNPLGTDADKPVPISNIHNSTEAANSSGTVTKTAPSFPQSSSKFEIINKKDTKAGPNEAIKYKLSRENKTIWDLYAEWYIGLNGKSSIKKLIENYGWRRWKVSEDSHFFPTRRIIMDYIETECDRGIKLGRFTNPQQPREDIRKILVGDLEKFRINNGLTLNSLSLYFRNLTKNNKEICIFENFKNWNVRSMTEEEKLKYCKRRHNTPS
# Assay: PBM E-score (8-mer binding enrichment) (E-score (-0.5 to 0.5)); higher = stronger / more preferred TF binding; most listed sequences are background and not binding sites
# Conditions: protein concentration: 100 nM; construct: GST-full length
# In short: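 PURExpress in vitro transcription/translation supplied GST-tagged yeast transcription factors, either full-length or DNA-binding domain. Applied at about 100-200 nM to universal all-10-mer Agilent arrays double-stranded by primer extension, the bound protein was detected with fluorescent anti-GST. E-scores, modified Wilcoxon-Mann-Whitney statistics, were given by the Universal PBM Analysis Suite to ungapped eight-base words pooled with their reverse complements after masliner normalisation.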
row,Sequence,PBM E-score
1,ACCTGTAG,0.135
2,AACAGCCT,-0.216
3,ATCCTGAC,0.163
4,ACGTTATC,-0.0893
5,AGCACTGA,-0.155
6,GCCACCGA,-0.074
7,AGACCGAC,-0.083
8,ACATATGC,-0.148
9,CGAGTATA,-0.0511
10,TCTTGCAA,-0.0678
11,ATATTTTA,0.207
12,CGCTAACA,-0.096
13,TGGAGTAA,0.0362
14,CGAAATCC,0.182
15,CCCAGGGA,-0.057
16,AGTTTATA,0.0439
17,CCCATAAC,0.0573
18,AGGTAAAG,-0.112
19,AATTACTG,-0.0404
20,ACTGCGCA,0.0776
21,ACAGTTGA,0.00324
22,CATGGACC,0.073
23,ACCCCATC,-0.0183
24,ATCAGTAG,-0.124
25,ATCCGACC,-0.129

row,Sequence,PBM E-score
1,ACTTGCGA,-0.0439
2,AAGTATAT,-0.0728
3,CCGGACCA,-0.125
4,ACAAGCCC,-0.28
5,AAACGTGC,0.153
6,CGAATTAA,0.151
7,AGCTTCCG,0.433
8,CCATGTCG,-0.0768
9,ATGGCGTC,0.319
10,GTATACAC,-0.08
11,CCTGAACC,-0.0942
12,ACAGGCAT,0.241
13,AGGATCGA,-0.12
14,AGCCGGAG,0.273
15,AGCAAGCG,-0.13
16,CCTTGGAC,-0.101
17,GGGGACAC,-0.105
18,CTTAGTGC,0.0733
19,GAAGGCAC,0.0664
20,CCATGTCA,-0.0858
21,GGCAGCCC,0.324
22,TGTCCAAA,0.0386
23,AAGACCTT,-0.268
24,GTGTCCGA,0.116
25,ATTCCGTC,0.0616

row,Sequence,PBM E-score
1,GTTGCGCA,0.0108
2,CTTGGAAA,-0.139
3,GCTTGTCC,-0.135
4,ACCAGCCT,0.0001
5,CCAGCGAG,-0.128
6,CCCGCTTC,0.184
7,ATCAATTC,-0.243
8,GTTAAAAA,0.0131
9,AAGCCTAC,-0.138
10,CACCGGGC,0.0767
11,AACCCACT,0.0874
12,GGGGGTGA,-0.296
13,AGGAGGAT,-0.0867
14,TGTAAACA,-0.0469
15,CATCGCTA,-0.0625
16,CCGGAAAG,0.0993
17,GTAGGTAA,-0.158
18,TAACCACA,-0.0752
19,ATAACGCA,-0.0972
20,CTAATGTA,0.00048
21,GAAGAAAC,-0.154
22,ACAGCTAC,0.00105
23,AAACTAAA,0.066
24,GCTCGTCA,-0.0675
25,GGCTAACC,-0.199

row,Sequence,PBM E-score
1,CGCATTTC,-0.0203
2,ACATGTAC,0.0438
3,CTCTGACC,-0.22
4,CTTCTGTC,0.2
5,ACGGTCAT,-0.23
6,CGGGAAAG,-0.168
7,CACGGAGC,0.101
8,GGACGTAA,-0.142
9,GGGAACTA,-0.0255
10,CCAAATCA,0.0691
11,TGGATCAA,-0.0326
12,ACGGATGC,0.183
13,ACCCATGA,-0.0601
14,ACCCCCGA,-0.128
15,GCATACCA,0.0234
16,AGTCTGTA,-0.152
17,ATAGACCC,-0.156
18,CAGTCGAC,0.113
19,ATCGCATC,0.148
20,GAGCCCGC,0.0531
21,GATGAAGA,-0.0906
22,GGCTCCAA,0.21
23,AGAGTGGC,-0.0394
24,AGCTCAAT,0.077
25,AGTAGAGC,0.0186

row,Sequence,PBM E-score
1,CTTACTCA,-0.238
2,CCAGCAGG,-0.157
3,GTGCGGTA,-0.0724
4,AACCTCTA,0.174
5,CTGTTTTC,0.0702
6,ACAGGAGC,0.136
7,CTGCGCCA,-0.135
8,AACTTCGC,0.0855
9,TGTCCGAA,0.119
10,AGGTTGAG,-0.162
11,ATAATGAC,-0.165
12,ACAGGACG,0.26
13,GTTTAAAC,-0.0684
14,GTAACGGA,-0.0344
15,AAGAGCTT,-0.0201
16,GTAAGGAC,-0.224
17,ATAGAAAC,0.171
18,CCGGTACC,0.0145
19,AACGTATC,-0.119
20,AGGTCTGC,-0.0299
21,AACTGGAG,0.115
22,CCTCCGTC,-0.3
23,GAAGTGTA,-0.161
24,ACGCTATC,0.036
25,AGTAGACG,0.302

row,Sequence,PBM E-score
1,AATACTAC,0.0602
2,TATGACCA,-0.0479
3,CGTGTAAG,0.142
4,CCCAGGAC,-0.0507
5,GCGTGCCA,-0.186
6,ATACTATC,-0.169
7,GATTCCAA,0.416
8,CTATCGGA,0.0265
9,ATCCCGGC,0.051
10,AAGCACAC,0.137
11,CTAATCCC,0.0895
12,CAGGCTGG,-0.174
13,CTGTGCGA,-0.147
14,CTGGAGTA,0.00472
15,AACAAAGA,0.00016
16,AAACAGCA,0.0823
17,AAGTCTGC,0.0313
18,ATTTCCGA,0.0903
19,TGTTTCAA,0.0895
20,CTAGACCC,-0.0797
21,GCAATATA,0.0306
22,AAAGCGCG,-0.0766
23,ACCCCCAA,-0.0644
24,ACGCCTAA,0.155
25,AGACTTCG,0.103

row,Sequence,PBM E-score
1,GCTACGGA,-0.0343
2,CAACACGC,-0.078
3,CGCCCATC,0.153
4,CGTGAGTC,-0.194
5,AGACCTTG,-0.173
6,ATGGGCTC,0.102
7,ACTCCGAT,-0.0465
8,CGATCTAG,-0.164
9,ACTAATAA,0.218
10,CGCGTACG,0.0697
11,AAACCTCC,-0.207
12,AGTTCTGC,-0.0323
13,ACCGGCTG,0.24
14,CAAGCTTC,0.232
15,ACGGAACA,0.169
16,CCAATAAC,0.0959
17,GTTATCAA,-0.0438
18,GCGACGTA,0.0483
19,ACCGCGAA,0.0692
20,CATACCCC,0.0232
21,CTTACTGC,-0.136
22,ATCAGCGA,-0.109
